Results from publication PMC4336329 (PLoS ONE, 2015).
Out of some 310,000 compounds screened, about 2,200 (0.71%) showed an effect of 50% or more. The effect is printed as a negative number. Some of the results follow.

Target: human ether-à-go-go-related gene (hERG) potassium channel (human, UniProt Q12809)
Experiment: primary screen, population patch clamp on CHO cells stably expressing hERG

human ether-à-go-go-related gene (hERG) potassium channel, sequence (Q12809 whole entry, looked up): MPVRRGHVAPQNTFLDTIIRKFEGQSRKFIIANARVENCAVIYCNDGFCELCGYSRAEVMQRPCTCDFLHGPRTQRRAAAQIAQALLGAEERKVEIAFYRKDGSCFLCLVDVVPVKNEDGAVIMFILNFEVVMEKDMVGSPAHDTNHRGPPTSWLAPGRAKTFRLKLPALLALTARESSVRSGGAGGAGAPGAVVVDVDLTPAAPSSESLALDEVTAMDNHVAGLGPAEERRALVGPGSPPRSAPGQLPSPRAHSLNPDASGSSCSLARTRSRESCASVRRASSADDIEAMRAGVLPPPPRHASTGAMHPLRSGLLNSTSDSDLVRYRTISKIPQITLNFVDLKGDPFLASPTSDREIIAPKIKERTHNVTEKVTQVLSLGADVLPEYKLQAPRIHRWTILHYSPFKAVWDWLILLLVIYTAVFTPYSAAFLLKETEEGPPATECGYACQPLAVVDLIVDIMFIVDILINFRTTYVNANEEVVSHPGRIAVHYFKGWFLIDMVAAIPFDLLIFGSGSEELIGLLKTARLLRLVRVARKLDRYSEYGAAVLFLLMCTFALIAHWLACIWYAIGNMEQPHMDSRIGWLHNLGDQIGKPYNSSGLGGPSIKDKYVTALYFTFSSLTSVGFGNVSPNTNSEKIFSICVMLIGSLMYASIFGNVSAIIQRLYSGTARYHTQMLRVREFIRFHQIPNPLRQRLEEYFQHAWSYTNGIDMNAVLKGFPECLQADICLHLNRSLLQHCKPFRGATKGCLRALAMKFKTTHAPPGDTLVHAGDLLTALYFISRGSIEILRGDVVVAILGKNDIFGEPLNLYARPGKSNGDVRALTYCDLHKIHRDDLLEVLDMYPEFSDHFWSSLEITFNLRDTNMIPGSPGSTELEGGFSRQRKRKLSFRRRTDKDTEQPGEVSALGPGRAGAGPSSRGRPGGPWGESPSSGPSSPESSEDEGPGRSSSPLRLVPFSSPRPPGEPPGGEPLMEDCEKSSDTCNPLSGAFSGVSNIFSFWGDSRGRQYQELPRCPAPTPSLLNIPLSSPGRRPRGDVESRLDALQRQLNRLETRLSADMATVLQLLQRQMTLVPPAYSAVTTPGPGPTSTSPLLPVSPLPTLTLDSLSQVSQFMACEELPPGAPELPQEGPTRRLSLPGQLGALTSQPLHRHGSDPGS

| SMILES | hERG current change (%, negative = inhibition) at 1uM [%] |
| --- | --- |
| O=C(c1ccccc1Cc1ccccc1)N1CCN(S(=O)(=O)c2ccccc2Br)CC1 | 6.13 |
| COCCCn1c(=O)c2ccccc2n(Cc2ccc(C)cc2)c1=O | 1.64 |
| COc1ccc(OCc2cc(C(=O)NCCN3CCCc4ccccc43)no2)c(Cl)c1 | 11 |
| Cc1ccccc1-c1nc(CN2CCN(C(=O)c3ccco3)CC2)c(C)o1 | 0.875 |
| C=CCN(c1ccccc1)S(=O)(=O)c1cccc(C(=O)Nc2cc(C)ccn2)c1 | -7.28 |
| COc1ccccc1C(=O)Nc1ccc(Br)cc1C | 30.8 |
| Cc1ccc(-c2n[nH]c(=O)c3ccccc23)cc1N | 5.08 |
| CCC(C)[C@H](NC(=O)NCCCN1CCOCC1)C(=O)OC (stereo partly shown) | 6.75 |
| COc1ccc(CCNC(=O)c2cc(-c3ccccc3)c(N3CCOCC3)s2)cc1OC | 13.2 |
| CCOc1ccc2nc(Cl)c(CN(C(C)=O)C3CCCCC3)cc2c1 | 11.5 |
| COc1ccccc1NC(=O)COC(=O)c1ccc2c(c1)nc(C)n2-c1ccccc1 | 5.48 |
| COCC(=O)Nc1ccc(OCc2ccccc2)cc1 | 13.2 |
| COC(=O)NCCc1cc(OC)c(OC)cc1S(=O)(=O)N1CC(=O)Nc2ccccc21 | 3.63 |
| COc1ccc(Cc2nnc(NC(=O)Nc3ccccc3F)s2)cc1 | 15.2 |
| Cn1nnc(NC(=S)NC(=O)c2cccs2)n1 | 3.9 |
| Cn1cccc1Cc1nnc(SCC(=O)Nc2ccc(F)cc2)n1-c1ccc(F)cc1 | 4.03 |
| COc1ccccc1CNC(=O)CN1CCC(n2cnc3cc(F)ccc32)CC1 | -59.1 |
| Cc1cc(OC(C)C(=O)Nc2ccccc2C(=O)N2CCCC2)ccc1Cl (stereo not shown) | -1.78 |
| O=C(/C=C/c1ccccc1)N1c2ccccc2Sc2ccc(C(F)(F)F)cc21 | 13.5 |
| Cc1noc(C)c1CSc1ccccc1C(=O)N(C)CC(=O)Nc1cccc(F)c1 | 10.6 |
| CC1(C)CC(=O)C(C(=O)c2ccccc2)C(=O)C1 | 0.985 |
| CCOc1ccc(C(=O)Nn2cnnc2)cc1 | 6.89 |
| CCCCC(=O)NC(=S)Nc1ccc(NC(=O)C(C)C)c(OC)c1 | 8.9 |
| COc1ccccc1Oc1nc(C)c(C(C)=O)cc1C#N | 13 |
| COc1ccc(C(CC(=O)N2CCOCC2)c2c(OC)cc(OC)c3c(-c4ccccc4)cc(=O)oc23)cc1 (stereo not shown) | 16.3 |
